{
  "source": "PubChem BioAssay AID588855",
  "about": "(National Center for Advancing Translational Sciences (NCATS), 2011)",
  "note": "Among all 410,000 compounds or so, about 5,000 (1.2%) were called active. The shares of active, inactive and inconclusive entries below differ from those in the screen. Calls follow the shape of the dose curve; as a rule, active = well fitted inhibition curve with a large enough effect; inconclusive = small, poorly fitted or top-dose-only effect; inactive = no such curve, though single readings can be large or run the other way. Potencies of inconclusive entries are doubtful fits and often do not repeat. % is scaled to controls: 0 for no effect and ±100 for the full control effect; potency is read from the fitted curve at half-maximal effect; tags tell the direction and shape of the fitted curve.",
  "data": [
    {"assay": "qHTS for Inhibitors of TGF-b; also: nearly all actives have a fitted effect of over 65% in size", "conditions": "HepG2 CAGA-GFP TGF-b/SMAD3 reporter, GFP fluorescence, 18 h, TGF-beta stimulated, 500 pg/mL final; series mostly up to 46.1 µM; activity, negative = inhibition: at the top concentration", "summary_of_the_method": "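Inhibition of TGF-beta-driven CAGA-GFP reporter expression in HEPG2 cells is measured by cellular GFP fluorescence after 18 h stimulation with 500 pg/mL recombinant TGF-beta in 1% FBS medium at 37 degrees C.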", "values": [
      {"smiles": "CC(C)CCNC(=O)C1(C)CCN1Cc1ccc2ccccc2c1", "note": "(centres undefined)", "Potency": "inconclusive: 35.5 µM [inhibitor, single point]"},
      {"smiles": "Cc1cc(C(=O)OCc2nnc(-c3ccccc3)o2)c(C)n1-c1ccccc1", "Potency": "inconclusive: 15.8 µM [inhibitor, single point]"},
      {"smiles": "CCCc1ccc(Oc2cc(C)nc(N3CCOCC3)n2)cc1", "Potency": "inconclusive: 12.6 µM [inhibitor, partial curve]"},
      {"smiles": "Cc1ccc2c(C)c(C(=O)Nc3cccnc3)oc2c1C", "activity, negative = inhibition": "inactive: 19.3%"},
      {"smiles": "Cc1cc(O)c(NC(=S)NC(=O)c2ccc(-c3ccc(Cl)cc3)o2)cc1C", "Potency": "inconclusive: 35.5 µM [inhibitor, single point]"},
      {"smiles": "CC[C@@H]1C(c2ccc(F)cc2)=NN(c2ccc(Br)cc2)[C@H]1C(=O)N1CCOC1=O", "Potency": "inconclusive: 35.5 µM [inhibitor, single point]"},
      {"smiles": "Fc1ccccc1N1CCN(c2ncnc3[nH]ncc23)CC1", "activity, negative = inhibition": "inactive: 22.2%"},
      {"smiles": "COC(=O)c1ccc(CC2(C)C(=O)Nc3ccc(-c4cccc(C(F)(F)F)c4)cc32)o1", "note": "(centres undefined)", "Potency": "inconclusive: 35.5 µM [inhibitor, single point]"},
      {"smiles": "Oc1ccc(Cl)cc1C1C=C(c2ccc3c(c2)OCO3)NC(c2ccc(Cl)cc2)N1", "note": "(centres undefined)", "Potency": "inconclusive: 17.8 µM [inhibitor, partial curve, poor fit]"},
      {"smiles": "Nc1ccc2nc[nH]c2c1", "Potency": "inconclusive: 14.1 µM [inhibitor, single point]"},
      {"smiles": "Cc1ccc(-c2nnc(Nc3cccc(Cl)c3)c3ccccc23)cc1S(=O)(=O)NCC1CCCO1", "note": "(centres undefined)", "activity, negative = inhibition": "inactive: -23.4%"},
      {"smiles": "CCS(=O)(=O)N1CCC(C(=O)NCCC(C)C)CC1", "activity, negative = inhibition": "inactive: -6.74%"},
      {"smiles": "CCC(C)c1ccccc1NC(=O)COC(=O)CCc1cc(OC)c(OC)c(OC)c1", "note": "(centres undefined)", "Potency": "inconclusive: 0.794 µM [inhibitor, partial curve, poor fit]"},
      {"smiles": "CCOC(=O)C1CCCN(C(=O)c2cc3cc(F)ccc3[nH]2)C1", "note": "(centres undefined)", "activity, negative = inhibition": "inactive: -18.2%"},
      {"smiles": "COc1ccc(/C=C(/NC(=O)c2ccc(C)cc2)c2nc3ccccc3[nH]2)cc1OC", "Potency": "inconclusive: 0.447 µM [inhibitor, partial curve, poor fit]"},
      {"smiles": "CC1CCN(C(=O)Cn2c(SCC(=O)Nc3nccs3)nc3ccccc32)CC1", "activity, negative = inhibition": "inactive: 1.81%"},
      {"smiles": "Nc1nc(-c2ccccc2)cc(-c2ccccc2O)n1", "Potency": "inconclusive: 22.4 µM [inhibitor, single point]"},
      {"smiles": "O=C1N[C@@H](Cc2ccccc2)C(=O)N2[C@H]1C[C@]1(Br)c3ccccc3N(S(=O)(=O)c3ccc(F)cc3)[C@H]21", "activity, negative = inhibition": "inactive: -10.3%"},
      {"smiles": "Cc1oc(-c2ccccc2F)nc1CS(=O)(=O)CC(=O)NCCCN1CCc2ccccc2C1", "activity, negative = inhibition": "inactive: 0.717%"},
      {"smiles": "O=C(Oc1cccc2cccnc12)c1cccc(N2C(=O)C3C4CCC(C4)C3C2=O)c1", "note": "(centres undefined)", "Potency": "inconclusive: 14.1 µM [inhibitor, single point]"},
      {"smiles": "NC(=O)c1nn(Cc2ccccc2)c(=O)c2ccccc12", "activity, negative = inhibition": "inactive: -5.49%"},
      {"smiles": "O=C(CCN1C(=O)/C(=C/c2ccccc2Cl)SC1=S)Nc1ccccc1C(=O)O", "activity, negative = inhibition": "inactive: 0.0707%"},
      {"smiles": "O=C(c1ccc(F)cc1)N1CCN(c2ccc([N+](=O)[O-])c(N3CCCCC3)c2)CC1", "Potency": "inconclusive: 12.6 µM [inhibitor, partial curve]"},
      {"smiles": "CC12CC3CC(C)(C1)CC(C(=O)Nc1nncs1)(C3)C2", "activity, negative = inhibition": "inactive: 35.2%"},
      {"smiles": "O=C(NC1CCCCC1)C(c1cccnc1)N(C(=O)CCl)c1cccc(Cl)c1", "note": "(centres undefined)", "Potency": "active: 10 µM"},
      {"smiles": "CCOC(=O)C1CCN(Cc2cccc(Oc3ccc(Cl)cc3)c2)CC1", "activity, negative = inhibition": "inactive: 18.8%"},
      {"smiles": "COc1cc(OC)cc(C(=O)N[C@H](C(=O)OCC(=O)c2ccc(C)c([N+](=O)[O-])c2)C(C)C)c1", "Potency": "inconclusive: 12.6 µM [inhibitor, partial curve]"},
      {"smiles": "Cc1ccc(S(=O)(=O)N2[C@@H](c3ccc(Br)cc3)C(C(=O)O)=C[C@H]2CC2CCCC2)cc1", "Potency": "inconclusive: 20 µM [inhibitor, single point]"},
      {"smiles": "NS(=O)(=O)c1ccc(N=Cc2c(O)c3ccccc3oc2=O)cc1", "Potency": "inconclusive: 35.5 µM [inhibitor, partial curve, poor fit]"},
      {"smiles": "O=C(CN1C(=O)NC(Cc2c[nH]c3ccccc23)C1=O)Nc1cccc(S(=O)(=O)N2CCCCCC2)c1", "note": "(centres undefined)", "Potency": "inconclusive: 12.6 µM [inhibitor, partial curve, poor fit]"},
      {"smiles": "COc1ccc(/C=N/NC(=S)N[C@H]2CC3CCC2C3)cc1", "note": "(some centres undefined)", "activity, negative = inhibition": "inactive: 0%"},
      {"smiles": "Cc1ccc([N+](=O)[O-])cc1NC(=S)NC(=O)C(C)(C)C", "Potency": "inconclusive: 10 µM [inhibitor, partial curve]"},
      {"smiles": "Cc1nc(NC(=O)c2ccccc2)nc2cc3c(cc12)OCO3", "Potency": "inconclusive: 3.16 µM [inhibitor, partial curve, poor fit]"},
      {"smiles": "CCCCCCCCCCCCCCCC[n+]1ccc(CC(O)c2c(C)[nH]c3ccccc23)c2ccccc21", "note": "(centres undefined)", "Potency": "inconclusive: 10 µM [inhibitor, partial curve, poor fit]"},
      {"smiles": "Cc1ccc(S(=O)(=O)N2CCN(c3ccc([N+](=O)[O-])cn3)CC2)cc1", "activity, negative = inhibition": "inactive: 0.974%"},
      {"smiles": "CCOc1ccccc1OCC(=O)Nc1ccc2[nH]c(=O)[nH]c2c1", "activity, negative = inhibition": "inactive: 13.5%"},
      {"smiles": "Nc1nonc1-c1noc(N2CCOCC2)n1", "Potency": "inconclusive: 35.5 µM [inhibitor, single point]"},
      {"smiles": "COC(=O)Cn1cc(C#N)c2ccccc21", "Potency": "inconclusive: 1.41 µM [inhibitor, partial curve, poor fit]"},
      {"smiles": "O=C(NNC(=O)c1ccccc1OCc1ccccc1)c1ccccc1O", "activity, negative = inhibition": "inactive: 0%"},
      {"smiles": "C[C@@H]1CN([C@@H](C)CO)C(=O)c2cc(NC(=O)C3CC3)ccc2O[C@@H]1CN(C)Cc1ccc(Cl)c(Cl)c1", "Potency": "inconclusive: 35.5 µM [inhibitor, single point]"},
      {"smiles": "C/C(=N\\NC(=O)c1ccc(F)cc1)c1ccccn1", "Potency": "active: 1.12 µM"},
      {"smiles": "CC(C)(C)/C(O)=C/c1nc2cc(Cl)ccc2oc1=O", "Potency": "inconclusive: 11.2 µM [inhibitor, single point]"},
      {"smiles": "O=C(CC1CCCC1)Nc1ccc(Cl)c(S(=O)(=O)N2CCOCC2)c1", "Potency": "inconclusive: 11.2 µM [inhibitor, single point]"},
      {"smiles": "CCn1nnnc1SCC(=O)NC1CCCC1", "activity, negative = inhibition": "inactive: 12.1%"},
      {"smiles": "CC(C)c1nc2sc3c(NCc4ccco4)ncnc3c2c2c1COC(C)(C)C2", "Potency": "inconclusive: 35.5 µM [inhibitor, single point]"},
      {"smiles": "FC(F)(F)C1CCCN(c2nsc3ccccc23)C1", "note": "(centres undefined)", "Potency": "inconclusive: 35.5 µM [inhibitor, single point]"},
      {"smiles": "O=C(CSc1nnc(C2COc3ccccc3O2)o1)N1CCCc2ccccc21", "note": "(centres undefined)", "Potency": "inconclusive: 35.5 µM [inhibitor, single point]"},
      {"smiles": "COc1ccc(C)cc1C1=CC(=O)C[C@H](c2ccc(F)cc2)C1", "Potency": "inconclusive: 35.5 µM [inhibitor, single point]"},
      {"smiles": "COc1ccc(-c2oc(=O)c3cc(OC)c(OC)cc3c2/C=C/c2ccc(F)cc2)cc1", "Potency": "inconclusive: 3.16 µM [inhibitor, single point]"},
      {"smiles": "COc1ccc(NC(=O)Cc2ccc(Cl)cc2)cc1S(=O)(=O)N1CCCCC1", "Potency": "inconclusive: 35.5 µM [inhibitor, single point]"},
      {"smiles": "CCOC(=O)CC1C(=O)NCCN1C(=O)Nc1ccc(Cl)cc1", "note": "(centres undefined)", "activity, negative = inhibition": "inactive: -5.82%"},
      {"smiles": "Cc1ccc(S(=O)(=O)NCc2ccccc2)cc1C(=O)NCC(=O)Nc1c(C)cccc1C", "activity, negative = inhibition": "inactive: -19.1%"},
      {"smiles": "CN(C)c1ccc(C=Nc2cnc3ccccc3c2)cc1", "activity, negative = inhibition": "inactive: 6.44%"},
      {"smiles": "Cc1ccc(C)c(NC(=O)c2ccccc2O)c1", "Potency": "inconclusive: 22.4 µM [inhibitor, single point]"},
      {"smiles": "CC(C)COC(=O)N1CCN(S(=O)(=O)c2ccc3c(c2)CCC3)CC1", "Potency": "inconclusive: 8.91 µM [inhibitor, partial curve]"},
      {"smiles": "S=c1nc(-c2ccco2)[nH][nH]1", "activity, negative = inhibition": "inactive: 0.172%"},
      {"smiles": "Fc1ccc(CN2CCN(C(c3ccccc3)c3ccccc3)CC2)cc1", "Potency": "inconclusive: 35.5 µM [inhibitor, single point]"},
      {"smiles": "Cc1ccc2c(=O)c(C(=O)c3ccc(F)cc3)cn(CC(=O)NCc3ccccc3)c2n1", "Potency": "inconclusive: 0.631 µM [inhibitor, full curve, poor fit]"},
      {"smiles": "COc1ccc(N2CCN(C(=O)c3ccc(C)c(NC(=O)c4nsc5ccccc45)c3)CC2)cc1", "activity, negative = inhibition": "inactive: -18.2%"},
      {"smiles": "NC(=O)c1cc([N+](=O)[O-])ccc1NCc1cccc(N)c1", "activity, negative = inhibition": "inactive: -1.43%"},
      {"smiles": "O=C(Nc1cccc(S(=O)(=O)NC2=NCCC2)c1)c1cn(-c2ccccc2)nc1-c1ccc(F)cc1", "Potency": "inconclusive: 25.1 µM [inhibitor, single point]"},
      {"smiles": "CC(=O)C1=CCC(c2ccccc2)N(S(=O)(=O)c2ccccc2)C1", "note": "(centres undefined)", "Potency": "inactive"},
      {"smiles": "Cc1nn(C(C)C)c(C)c1CN1CCC(C(=O)Nc2cccc(-c3cccc(F)c3)c2)CC1", "Potency": "inconclusive: 35.5 µM [inhibitor, single point]"},
      {"smiles": "COC(=O)c1cc(S(=O)(=O)NCC2CCN(Cc3cc(C)ccc3C)CC2)c[nH]1", "Potency": "inconclusive: 0.447 µM [inhibitor, full curve, poor fit]"},
      {"smiles": "CCOC(=O)c1c(C)sc2c1N(C(=O)CCl)c1cc(Cl)ccc1S2", "Potency": "inconclusive: 35.5 µM [inhibitor, single point]"},
      {"smiles": "COc1ccc(C(CCN2CCOCC2)c2c(O)cc(OC)cc2OC)cc1", "note": "(centres undefined)", "Potency": "inconclusive: 0.631 µM [inhibitor, full curve, poor fit]"},
      {"smiles": "c1cc2c3c(cccc3c1)NC1(CCC3(CC1)Nc1cccc4cccc(c14)N3)N2", "Potency": "inconclusive: 0.447 µM [inhibitor, full curve]"},
      {"smiles": "COCCN1C(=O)c2[nH]nc(-c3ccccc3O)c2C1c1ccc(OCc2ccccc2)c(OC)c1", "note": "(centres undefined)", "Potency": "inconclusive: 35.5 µM [inhibitor, single point]"},
      {"smiles": "COC(=O)c1c(-c2cccs2)csc1NC(=O)c1ccc(Cl)cc1", "Potency": "inconclusive: 10 µM [inhibitor, partial curve]"}
    ]}
  ]
}
